# Data taken from PubChem BioAssay AID1460 (National Center for Advancing Translational Sciences (NCATS), 2008).
# In all, about 270,000 compounds went through this assay and about 5,800 (2.1%) were called active. Inconclusive means that the source gave no clear call. Such entries were picked first, then a sample of the others. The call rests on the fitted dose curve; in most records, active means well fitted inhibition curve with a large enough effect; inconclusive means small, poorly fitted or top-dose-only effect; inactive means flat fitted curve, though single readings scatter. Where the call is inconclusive, the potency comes from a doubtful curve fit.
# Molecular target: Microtubule-associated protein tau (Homo sapiens) (UniProt P10636)
# Experiment: qHTS for Inhibitors of Tau Fibril Formation, Thioflavin T Binding; further: nearly all actives have a fitted effect of over 55% in size
# Details: recombinant tau K18 P301L (four-repeat tau fragment), heparin-induced fibrillization, ThT fluorescence; series mostly up to 57.4 µM; activity, negative = inhibition: at the top concentration
# How it was run: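 Recombinant human tau K18 fragment […] carrying P301L, 15 uM unlabeled plus 0.24 uM Alexa 594-labeled, was fibrillized with 20 uM heparin in 100 mM sodium acetate pH 7 for 6 hr at 37 C; 30 uM ThT fluorescence read after 1 hr.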
# On the % scale 0 is the no-effect control and ±100 the full control effect; potency means the concentration at half of the fitted maximal effect; tags describe the fitted curve by direction and shape.
# Sequence of UniProt P10636 (P10636 whole entry, looked up): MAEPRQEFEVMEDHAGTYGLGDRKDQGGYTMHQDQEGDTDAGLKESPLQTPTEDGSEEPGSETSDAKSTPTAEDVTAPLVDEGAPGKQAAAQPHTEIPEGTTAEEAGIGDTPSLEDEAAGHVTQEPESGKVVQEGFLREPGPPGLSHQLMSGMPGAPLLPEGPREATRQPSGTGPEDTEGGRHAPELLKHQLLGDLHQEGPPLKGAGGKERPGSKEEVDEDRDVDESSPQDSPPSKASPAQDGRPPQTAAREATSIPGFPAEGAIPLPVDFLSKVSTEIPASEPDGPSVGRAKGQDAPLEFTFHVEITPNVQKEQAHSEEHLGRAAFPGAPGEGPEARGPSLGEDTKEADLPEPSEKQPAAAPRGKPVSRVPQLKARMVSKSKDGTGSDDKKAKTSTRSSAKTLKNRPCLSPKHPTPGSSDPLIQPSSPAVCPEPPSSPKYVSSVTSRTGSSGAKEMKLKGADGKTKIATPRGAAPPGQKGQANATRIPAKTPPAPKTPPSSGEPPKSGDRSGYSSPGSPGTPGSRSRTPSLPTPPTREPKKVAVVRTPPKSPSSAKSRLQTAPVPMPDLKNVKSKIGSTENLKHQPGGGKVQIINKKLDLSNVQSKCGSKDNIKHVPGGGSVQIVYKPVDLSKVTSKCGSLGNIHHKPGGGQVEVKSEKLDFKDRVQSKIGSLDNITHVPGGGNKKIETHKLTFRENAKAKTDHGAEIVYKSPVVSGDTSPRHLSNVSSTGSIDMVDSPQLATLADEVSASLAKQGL
Compound,"activity, negative = inhibition",Potency
COc1ccc2[nH]c(C)c(CN3CCCCC3)c(=O)c2c1,inactive: -2.14%,–
CC(=O)Nc1sc(N/N=C/c2ccccc2F)nc1-c1ccc(C)cc1,–,"inconclusive: 8.91 µM [inhibitor, partial curve]"
CC(=O)Nc1ccc(S(=O)(=O)N2CCN(c3cc4c(cc3[N+](=O)[O-])n(C)c(=O)n4C)CC2)cc1,–,"inconclusive: 44.7 µM [inhibitor, partial curve]"
COc1ccc(-c2n[nH]c3c2C(c2ccc(Cl)cc2Cl)NC3=O)cc1 (stereo not drawn),–,"inconclusive: 39.8 µM [activator, single point]"
Cc1ccn2cc(-c3nonc3C)cc2c1,–,"inconclusive: 35.5 µM [inhibitor, single point]"
Clc1ccc2nc(CSc3nc4ccccc4o3)cn2c1,–,"inconclusive: 1.12 µM [inhibitor, full curve]"
c1ccc(-c2nc(-n3ccnc3)nc(-n3ccnc3)n2)cc1,inactive: -12.3%,–
COc1ccc(C2C(C#N)=C(N)Oc3n[nH]c(C)c32)cc1CN1CCN(c2ccc(F)cc2)CC1 (stereo not drawn),–,"inconclusive: 20 µM [inhibitor, partial curve]"
OC1(c2cccc(C(F)(F)F)c2)CCN(c2ncnc3c2[nH]c2ccc(F)cc23)CC1,–,"inconclusive: 17.8 µM [inhibitor, single point]"
CCOC(=O)Cn1c(=NC(=O)CSC(C)=O)sc2cc(OC)ccc21,–,"inconclusive: 22.4 µM [inhibitor, single point]"
COc1ccc(-c2c(=O)n(OCc3ccccn3)c3ccccc3[n+]2[O-])cc1OC,–,"inconclusive: 25.1 µM [inhibitor, partial curve]"
CN(C)c1nc(OCCNC(=O)Nc2ccccc2)nc(N2CCCCC2)n1,–,"inconclusive: 22.4 µM [inhibitor, partial curve, poor fit]"
Cc1ccc(C)c(N2CCN(C(=O)c3ccc(CSc4nc5ccncc5[nH]4)cc3)CC2)c1,–,"inconclusive: 31.6 µM [inhibitor, partial curve]"
O=C(CN1C(=O)S/C(=C\C=C\c2ccccc2)C1=O)Nc1ccc(C(=O)O)cc1,–,"inconclusive: 5.01 µM [inhibitor, partial curve]"
O=C(CCC(=O)N1CCN(c2ccccc2F)CC1)c1ccc(F)cc1,–,"inconclusive: 31.6 µM [inhibitor, single point]"
Cc1cc(C2=CC(C)(c3cc(C)oc3C)Nc3nc(C(F)(F)F)nn32)c(C)o1 (stereo not drawn),–,active: 28.2 µM
COCCn1c(SCC(=O)c2ccc(OC)cc2)nc2cc(C(=O)NC3CCCC3)ccc2c1=O,inactive: 12.2%,–

Compound,"activity, negative = inhibition",Potency
Cc1ccc(-c2nc3ccccc3c(=O)n2NC(=O)c2cccs2)cc1,inactive: 7.48%,–
Oc1c(C(c2cccs2)N2CCN(c3cccc(Cl)c3)CC2)sc2ncnn12 (stereo not drawn),–,"inconclusive: 35.5 µM [inhibitor, single point]"
COC(=O)c1cc2oc(C)cc2n1Cc1cccc(Cl)c1,–,"inconclusive: 22.4 µM [inhibitor, single point]"
Cc1cc(NC(=O)CSc2nc(-c3cccs3)cc(C(F)(F)F)n2)no1,inactive: 7.56%,–
COc1ccc(OC)c(NC(=O)c2c(NC(=O)CCC(=O)O)sc3c2CCCCC3)c1,–,"inconclusive: 25.1 µM [inhibitor, partial curve]"
Clc1nnc(NN=C2CCCC2)c2ccccc12,–,active: 25.1 µM
Cc1ccc(S(=O)(=O)NCC2CCC(C(=O)NCc3ccc4c(c3)OCO4)CC2)cc1 (stereo not drawn),inactive: -8%,–
CCOc1ccc(OCC)c(NC(=O)c2cnc3c(-c4ccccc4)c(C)nn3c2C)c1,–,"inconclusive: 15.8 µM [inhibitor, partial curve]"
O=[N+]([O-])c1ccc(C(O)CN=Cc2ccc(O)cc2O)cc1 (stereo not drawn),–,"inconclusive: 14.1 µM [inhibitor, partial curve]"
COc1cc(/C=C\C(=O)Nc2cc(=O)n(C)c(=O)n2C)cc(OC)c1OC,inactive: -7.53%,–
C=CCn1c(NC(=O)c2ccccc2Cl)c(C#N)c2nc3ccccc3nc21,–,"inconclusive: 15.8 µM [inhibitor, single point]"
Cc1cccc(NCC(=O)NNC(=S)Nc2ccccc2)c1,inactive: -11.8%,–
CN1C2C=C3C(C#N)=C(N)C(C#N)(C#N)C(c4ccc(Br)cc4)C3C1CC2 (stereo not drawn),–,"inconclusive: 14.1 µM [inhibitor, partial curve]"
CCOc1ccccc1-c1nc(-c2cc3ccccc3nc2OC)no1,–,"inconclusive: 17.8 µM [inhibitor, partial curve]"
CC(=O)c1ccc(NC(=O)Nc2sc(NS(=O)(=O)c3ccccc3)nc2C)cc1,–,"inconclusive: 20 µM [inhibitor, partial curve, poor fit]"
Oc1ccccc1/C=N/Nc1ccccc1,–,"inconclusive: 17.8 µM [inhibitor, partial curve]"
